Among all 310,000 compounds or so, about 2,200 (0.71%) showed an effect of 50% or more. Effects have a minus sign here. Some of the results follow.
target: human ether-à-go-go-related gene (hERG) potassium channel (human, UniProt Q12809); assay: primary screen, population patch clamp on CHO cells stably expressing hERG
Sequence (Q12809 whole entry, looked up): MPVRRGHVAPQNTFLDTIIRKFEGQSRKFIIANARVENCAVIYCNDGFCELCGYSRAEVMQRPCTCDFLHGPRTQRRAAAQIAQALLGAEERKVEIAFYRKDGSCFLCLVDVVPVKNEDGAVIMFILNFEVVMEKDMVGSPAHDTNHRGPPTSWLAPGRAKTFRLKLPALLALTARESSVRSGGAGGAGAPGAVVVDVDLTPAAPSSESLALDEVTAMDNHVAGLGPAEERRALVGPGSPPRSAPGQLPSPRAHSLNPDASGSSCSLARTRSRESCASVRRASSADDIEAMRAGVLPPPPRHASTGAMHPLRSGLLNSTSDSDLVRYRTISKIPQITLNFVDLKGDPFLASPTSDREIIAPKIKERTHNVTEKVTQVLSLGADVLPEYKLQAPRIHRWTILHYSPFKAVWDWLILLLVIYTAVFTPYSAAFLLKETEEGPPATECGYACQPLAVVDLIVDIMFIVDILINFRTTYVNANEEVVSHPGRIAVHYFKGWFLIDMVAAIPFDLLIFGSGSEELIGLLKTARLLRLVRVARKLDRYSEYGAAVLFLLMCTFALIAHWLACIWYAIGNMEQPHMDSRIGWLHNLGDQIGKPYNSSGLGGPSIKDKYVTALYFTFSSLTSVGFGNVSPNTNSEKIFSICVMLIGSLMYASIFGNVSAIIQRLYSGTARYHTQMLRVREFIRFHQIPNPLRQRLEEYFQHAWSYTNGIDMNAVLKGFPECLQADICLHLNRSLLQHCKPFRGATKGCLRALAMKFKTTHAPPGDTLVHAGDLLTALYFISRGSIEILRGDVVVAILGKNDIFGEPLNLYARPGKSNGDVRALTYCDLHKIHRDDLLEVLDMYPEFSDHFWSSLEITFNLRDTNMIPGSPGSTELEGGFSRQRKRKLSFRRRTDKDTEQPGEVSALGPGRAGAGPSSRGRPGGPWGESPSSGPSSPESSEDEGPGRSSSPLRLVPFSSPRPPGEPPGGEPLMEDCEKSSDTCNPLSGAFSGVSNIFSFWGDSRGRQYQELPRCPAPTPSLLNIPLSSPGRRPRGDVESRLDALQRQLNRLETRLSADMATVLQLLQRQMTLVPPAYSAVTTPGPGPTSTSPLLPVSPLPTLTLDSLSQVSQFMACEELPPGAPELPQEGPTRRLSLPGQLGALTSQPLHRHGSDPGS

SMILES	hERG current change (%, negative = inhibition) at 1uM
Cc1nnc2c3ccccc3c(Cl)nn12	7.77%
Cc1ccc(C)c(S(=O)(=O)Nc2ccccc2C(=O)Nc2ccccc2N2CCOCC2)c1	9%
CC(=O)N1CCN(C(=O)c2cc(-c3ccc(Cl)s3)nc3ccccc23)CC1	-7.89%
COc1ccccc1CNC(=O)c1ccc(CS(=O)(=O)c2ccccc2C)o1	-4.08%
COc1cccc(Cn2cnc3c(NS(=O)(=O)c4cc(Cl)ccc4Cl)c(C)c(C)cc32)c1	6.11%
CSCCC(NC(=O)c1ccco1)C(=O)OCC(=O)N1c2ccccc2NC(=O)C1(C)C (stereo not shown)	5.85%
CCCCNc1ncnc2sc3c(c12)CCN(CCC)C3	-80.9%
CCc1ccc(N(C2C=CS(=O)(=O)C2)S(=O)(=O)c2ccccc2)cc1 (stereo not shown)	10.1%
CCN(CC(=O)NCC1CCCO1)S(=O)(=O)c1ccc2ccccc2c1 (stereo not shown)	15.4%
COc1ccc(CNC(=O)CNS(=O)(=O)c2cccs2)cc1	11.4%
CCOC(=O)C1(c2ccccc2)CCN(CCC(=O)Nc2ccc(F)cc2)CC1	3.03%
Cc1cccc(NC(=O)c2cccc(C(=O)Nc3cccc(C)c3)c2)c1	14.1%
CCOc1cc(NS(=O)(=O)c2ccc(OC)cc2)c(OCC)cc1NC(=O)c1ccco1	-12%
Cc1cc(CNC(=O)CC2C(=O)NCCN2CC(C)(C)C)nn1C (stereo not shown)	10.4%
CCOC(=O)c1c2n(c3c(NCc4ccccc4)ncnc13)CCCC2	-70.3%
COc1ccc(CN2CCN(C(=O)c3cccc(OC)c3OC)CC2)cc1OC.O=C(O)C(=O)O	11.2%
CCOC(=O)CN(C(=O)Cn1nnc(-c2ccc(OC)cc2)n1)C(C(=O)NC1CCCC1)c1ccc(F)cc1 (stereo not shown)	6%
CNC(=O)c1ccc(-c2ccccc2)s1	12.6%
O=C(NCc1ccccc1Cl)C1CCN(S(=O)(=O)c2ccc(N3CCCC3=O)cc2)CC1	18.4%
CCOC(=O)C1CCCN(CC(=O)Nc2c(C(=O)OC)[nH]c3ccc(C)cc23)C1 (stereo not shown)	7.52%
O=C1CN(C(=O)CSc2nncn2-c2ccccc2)c2ccccc2N1	18.3%
CCN1C(=O)c2ccccc2Sc2ccc(C(=O)O)cc21	6.72%

SMILES	hERG current change (%, negative = inhibition) at 1uM
O=C(N/N=C/c1cccc([N+](=O)[O-])c1)c1ccc2nc[nH]c2c1	14.2%
O=[N+]([O-])O[C@H]1CO[C@H]2[C@@H]1OC[C@H]2O[N+](=O)[O-]	5.3%
Cc1ccc2cc(CNC(C)(C)C)c(=O)[nH]c2c1	-5.6%
O=C(Nc1cccnc1)c1cccc(S(=O)(=O)N2CCc3ccccc32)c1	6.42%
CC(=O)Nc1ccc(NC(=O)CNC(=O)COc2ccccc2)cc1	7.99%
CC(=O)N1CCc2cc(S(=O)(=O)CCC(=O)NCc3ccc4c(c3)OCO4)ccc21	2.72%
COC(=O)C1=C(C)NC(=O)NC1/C=C/c1ccccc1 (stereo not shown)	-2.26%
COc1ccc(C(=O)COC(=O)C2CCCN2C(=O)C23CC4CC(CC(C4)C2)C3)cc1 (stereo not shown)	-0.91%
O=C(CNc1ccccc1)Nc1ccc(F)cc1	14.8%
COc1ccc(-n2nc(C(=O)NCC(=O)N3CCC(C(N)=O)CC3)c3ccccc3c2=O)cc1	14.1%
COc1ccccc1CNC(=O)c1cc(-c2ccccc2C)nn1CC1CC(c2cccnc2)=NO1 (stereo not shown)	3.82%
COc1cc(C=O)ccc1OCC(=O)Nc1ccc2c(c1)OCO2	11.8%
O=C(O)Cc1ccc(O)cc1	11.7%
Cc1cc(C)c(C#N)c(SCc2ccc(C(=O)O)cc2)n1	2.68%
C#CCNC(=O)C1=C[C@H](C(C)(C)C)C[C@H](OCCCCO)O1	-6.94%
Cc1ccc(CNC(=O)Nc2cccc(C)c2)cc1	19.4%
COc1cc(SC)ccc1C(=O)Nc1ccncc1	11.4%
S=C(NCc1ccc2c(c1)OCO2)Nc1ccc(-c2nc3ccccc3[nH]2)cc1	10.8%
Oc1[nH]c2ccccc2c1N=Nc1ccc(C(F)(F)F)cn1	10.9%
O=C(CSc1nc2[nH]c(=O)cc(O)c2s1)Nc1cc(Cl)cc(Cl)c1	2.13%
Cc1ccc(C)c(N2CCN(C(=O)c3ccc4nc(-c5ccco5)c(-c5ccco5)nc4c3)CC2)c1	23.4%
O=C(CN1CCN(c2ccc(F)cc2)CC1)NCc1ccc(Cl)cc1	-27.9%

SMILES	hERG current change (%, negative = inhibition) at 1uM
CCCS(=O)(=O)N1CCC(C(=O)NC2CCCC(C)C2C)CC1 (stereo not shown)	5.97%
CC(C)Cc1cc(C(=O)Nc2cc(Cl)ccc2Cl)no1	14.1%
CCC1CCCCN1C(=S)Nc1ccc(C(C)=O)cc1 (stereo not shown)	10.6%
O=C(O)c1cccc(-n2cccc2/C=C2\SC(=O)N(Cc3ccccc3F)C2=O)c1	12.9%
Cc1cccc(NC(c2ccc(O)cc2)c2ccc3ccc(C)nc3c2O)n1 (stereo not shown)	25.6%
Cc1ccc(NC(=S)NNc2ncc(C(F)(F)F)cc2Cl)cc1	3.59%
CCOC(=O)c1c(NC(=O)CN2CCCCC2)sc2c1CCN(C(=O)OCC)C2	2.11%
O=C(Nc1ccccn1)C12CC3CC(CC(C3)C1)C2	-12.3%
CCCC(C)NC(=O)C1CCN(C(=O)C2CC(=O)N(c3ccc(C)cc3)C2)CC1 (stereo not shown)	3.91%
CCc1nn(C)c(N)c1C.Cl	10.9%
COc1ccccc1CN1C[C@@H]2C[C@@H](c3ccc(Cl)cc3)N3CCC[C@@]23C1=O	-29.4%
O=C(N/N=C/c1ccc(O)c(O)c1)N/N=C/c1ccc(O)c(O)c1	9.14%
O=C1/C(=N\S(=O)(=O)c2cccs2)C([n+]2cccc(Cc3ccccc3)c2)=C([O-])c2ccccc21	7.92%
COC(=O)c1c(N)sc(C(=O)NCCc2ccccc2)c1C	12.2%
CCOC1OC(=O)C(Cl)=C1Nc1ccc(C)cc1C (stereo not shown)	11.5%
CSc1nsc(SC)c1C(=O)O	19.4%
CSCCC(NC(=O)c1ccc(Cl)cc1Cl)C(=O)OCC(N)=O (stereo not shown)	8.22%
Cc1[nH]c(=O)[nH]c(=O)c1/C=N/NC(=O)[C@@H](NC(=O)OC(C)(C)C)C(C)C	6.61%
CC(CCc1ccccc1)NC(=O)CCC1CCCC1 (stereo not shown)	-4.4%
CC(C)Oc1ccc(N2CC(C(=O)Nc3ccc4c(c3)OCO4)CC2=O)cc1 (stereo not shown)	5.88%
Cc1[nH]c2ccccc2c1/C=C/c1nc2ccccc2c(=O)n1-c1ccc([N+](=O)[O-])cc1	-1.09%
COc1ccc(-c2cc(C(F)(F)F)nc(SCC(=O)Nc3cc(C)on3)n2)cc1OC	11.5%

SMILES	hERG current change (%, negative = inhibition) at 1uM
CCCOc1ccc(C(=O)NNC(=S)NC(=O)c2cc(-c3ccc(Cl)cc3)nc3ccccc23)cc1	10.3%
Br.C=CCn1c(=N)n(CC(=O)c2ccc(OC)cc2)c2ccccc21	-2.61%
CCOC(=O)C1CCCN(C(=O)c2cc(-c3ccc(C)cc3)nc3ccccc23)C1 (stereo not shown)	10.4%
CSc1nsc(SCC(=O)Nc2c(C)n(C)n(-c3ccccc3)c2=O)n1	2.23%
CN(C)C(=O)C(NC(=O)c1ccccc1)=C(Cl)Cl	-3.02%
CC(C)Oc1ccc(CN2CCC(n3nccc3NC(=O)c3cccnc3)CC2)cc1	-52.6%
CC12CC3CC(C)(C1)CC(N)(C3)C2.O=[N+]([O-])O	5.74%
Cc1[nH]c2ccccc2c1C(=O)CN1C(=O)C(=O)N(C2CCCC2)C1=O	10.6%
Cc1ccc(S(=O)(=O)N2CCOC23CCN(S(=O)(=O)c2c(C)cc(C)cc2C)CC3)cc1	3.94%
Cc1cc(Cl)ccc1OCC(O)CN1C(C)CCCC1C.Cl (stereo not shown)	-46.3%
CCN(CC)C(=O)Oc1ccccc1NC(C)=O	17.6%
Cc1cc(C)c(C#N)c(SCC(=O)Nc2ccc(S(=O)(=O)Nc3ncccn3)cc2)n1	10.9%
O=C(Nc1ccccc1C(=O)O)c1cccc(NC(=O)c2ccco2)c1	15.9%
CN(C)S(=O)(=O)c1ccc(NC(=O)COC(=O)CC2CC3CCC2C3)cc1 (stereo not shown)	3.85%
O=c1ccc(/C=C/c2ccccc2)nn1Cc1ccc(Cl)cc1Cl	3.78%
O=C(C1CCCC1)N1CCN(S(=O)(=O)c2ccc(Cl)cc2)CC1	18%
O=C(Cc1ccc(Br)cc1)Nc1cccc(-c2cn3c(n2)SCC3)c1	12.2%
Cc1ccc(NC(=O)CCn2nc(C)cc2C)cc1	13.7%
O=C1c2ccncc2C(=O)N1c1cccc(Cl)c1	6.45%
CNC(=O)Nc1ccc2nc(C)sc2c1	8.73%
Cc1nc2nc(-c3cccnc3)nn2c(C)c1Cl	6.68%
COc1cc(O)c(C(CCN2CCN(c3ccccc3)CC2)c2cc(OC)c(OC)c(OC)c2)c(OC)c1 (stereo not shown)	11.3%
